The structures appear in SMILES notation. The campaign covered roughly 150,000 compounds. About 540 (0.36%) showed an effect of 50% or more. The list shows a part of the results.

The assay concerns Plasmodium falciparum. Description: Primary screen in NF54 nanoGlo assay, in single point, at 2uM, 72h; a lower Z score goes with more inhibition. The class given is functional, Erythrocyte. The note with it: timepoint 72 hour.
For the compound `CC(C)Cn1cncc1CN(C)Cc1cnccn1`, the “% Inhibition” value is recorded as -3% and the Z score came to 0.39.

Regarding `O=C(Cc1ccc(Cl)cc1Cl)N(Cc1ccco1)[C@H]1CCS(=O)(=O)C1`, the “% Inhibition” value is -6% and the Z score was found to be 0.73.

Consider `Cc1ccccc1C(=O)NCC(=O)N1CC[C@H](C2CCOCC2)C1`, for which the “% Inhibition” value is listed as -10% and the Z score came out at 1.08.

Regarding `CC(C)c1nnc2ccc(NS(=O)(=O)c3ccc4c(c3)N(C)CCC4)cn12`, the “% Inhibition” value was -9% and the Z score amounted to 1.07.

With `Cc1c(CN2CCC[C@H](N(CCN3CCCC3)C(=O)C3CCC3)C2)cnn1C`, the “% Inhibition” value was -13% and the Z score is 1.75.

For the compound `NC1CC2CC(C(=O)NCC3(C(F)(F)F)CCCC3)CC12` (stereo unspecified), the “% Inhibition” value is reported as -3% and the Z score is listed as 0.44.

With `O=C(c1cccc(-c2ccn[nH]2)c1)N1CCN(C/C=C/c2ccccc2)CC1`, the “% Inhibition” value was found to be 6% and the Z score was -0.79.

With `Cc1cc(NC(=O)NCc2ccc(F)cc2)on1`, the “% Inhibition” value is on record as 2% and the Z score is reported as -0.25.

Take `COc1ccc2c(c1)-c1onc(C(=O)NCc3cc(F)cc(F)c3)c1CC2`: the “% Inhibition” value is -14% and the Z score stood at 1.53.

As for `Cc1ccsc1C(=O)N1CCn2c(nnc2[C@@H]2CCCCN2S(C)(=O)=O)C1`, the “% Inhibition” value is reported as -1% and the Z score came out at 0.12.

In the case of `CCc1nnc(CO[C@H]2CCCc3c[nH]nc32)o1`, the “% Inhibition” value is listed as -8% and the Z score is 1.08.

As to `Cn1nc(-c2ccccc2)c(CN(Cc2ccccc2)C[C@H](O)COC(C)(C)C)c1Oc1ccccc1`, the “% Inhibition” value was -5% and the Z score stood at 0.94.

With `Cc1oc2ccn(Cc3cccc(F)c3)c(=O)c2c1C(=O)N(C)Cc1ccccc1`, the “% Inhibition” value was found to be 11% and the Z score was -1.66.

Regarding `O=C(c1cnccn1)N1CCOc2ccc(N3CCOCC3)cc2C1`, the “% Inhibition” value is on record as -5% and the Z score was 0.99.

`Cn1nncc1NC(=O)[C@@H]1C[C@]1(C)c1ccccc1`: the “% Inhibition” value amounted to 2% and the Z score was -0.33.

As for `O=C(NCCn1nccn1)c1ccoc1`, the “% Inhibition” value was -7% and the Z score stood at 1.05.

For the compound `CCNc1nc(C)cc(NCCNC(=O)c2ccc(OC)c(OC)c2)n1`, the “% Inhibition” value is given as -9% and the Z score stood at 1.05.

Consider `CN1CC[C@H](CN(C)C(=O)c2ccc(-c3ccc4cc[nH]c(=O)c4c3)cc2)C1`, for which the “% Inhibition” value is -6% and the Z score was 0.98.

As for `Cn1nncc1CNC(=O)C[C@H]1COc2ccccc2O1`, the “% Inhibition” value is on record as 4% and the Z score was -0.72.

Take `CN1c2ccc(F)cc2N(CCNC(=O)C(C)(C)Oc2ccc(Cl)cc2)S1(=O)=O`: the “% Inhibition” value was determined as 15% and the Z score is recorded as -1.97.

Regarding `CN(C)[C@@H](CNC(=O)c1ccoc1)c1ccc2c(c1)CCO2`, the “% Inhibition” value is reported as -12% and the Z score was determined as 1.79.

In the case of `CC(C)c1sc(NC(=O)C2CC(=O)N(C)C2c2cccnc2)nc1-c1ccccc1` (stereo unspecified), the “% Inhibition” value is on record as -5% and the Z score is on record as 0.69.

Take `O=C(C[C@H](c1ccc(Cl)c(Cl)c1)c1c[nH]c2ccccc12)NC(c1ccccc1)c1ccccc1`: the “% Inhibition” value came out at 5% and the Z score is listed as -0.69.

`COc1ccc(CC(=O)N2CCC[C@H]2c2cc(C(C)C)no2)cc1OC`: the “% Inhibition” value is 14% and the Z score is on record as -1.91.

Turning to `Cc1c(Cl)ccc2c1NC(=O)[C@]21N2CCC[C@H]2[C@@H](C(=O)c2ccc3ccccc3c2)[C@]12C(=O)Nc1ccccc12`, the “% Inhibition” value worked out at 2% and the Z score is recorded as -0.19.

As for `CC(=O)N1CC(OCC(=O)Nc2nc(-c3cccc(-n4cnnn4)c3)cs2)C1`, the “% Inhibition” value was 1% and the Z score is -0.18.

`c1ccc(CN2Cc3ccccc3C[C@H]2c2nnc3n2CCOCC3)cc1`: the “% Inhibition” value was -4% and the Z score is listed as 0.57.

For the compound `O=C(COc1ccc2c(c1)OCO2)Nc1nnc(CCCc2ccccc2)s1`, the “% Inhibition” value is -3% and the Z score is 0.4.

Turning to `O=C(Nc1ccc(=O)n(Cc2ccc(Cl)c(Cl)c2)c1)c1cc(O)nc2ccccc12`, the “% Inhibition” value stood at 2% and the Z score is recorded as -0.24.

For the compound `CCc1nccn1CCC(=O)NCCn1cnc(C)c1C`, the “% Inhibition” value is on record as 1% and the Z score is listed as -0.06.

Take `O=C(c1ccc(C(F)(F)F)[nH]1)N(CCO)C1CC1`: the “% Inhibition” value was -2% and the Z score worked out at 0.39.

Consider `C[C@H]1CCCN(c2nc(-c3ccccn3)nc3ccccc23)C1`, for which the “% Inhibition” value was found to be 96% and the Z score is -9.05.

Turning to `CN(Cc1cc(Br)cn1C)c1ccc(C#N)nc1`, the “% Inhibition” value is -8% and the Z score turned out to be 0.88.

On to `Nc1nnc(CNC(=O)C[C@@H]2C=CCC2)s1`, for which the “% Inhibition” value was 1% and the Z score was -0.18.

For `COc1cc(C)c(C(C)NC(=O)N2C[C@H](OC)[C@H](OC)C2)cc1OC` (stereo partly specified), the “% Inhibition” value came to 10% and the Z score is given as -1.24.

As to `CN(C)c1nccc(CNC(=O)c2cccc(-n3cncn3)c2)n1`, the “% Inhibition” value came out at 12% and the Z score is given as -1.4.

Take `CC(=O)c1ccc(N2CCCN(CC(C)C)CC2)nc1`: the “% Inhibition” value is on record as -18% and the Z score stood at 1.65.

`Cc1nc(C)c(CNC(=O)Nc2cccs2)s1`: the “% Inhibition” value is recorded as 2% and the Z score is listed as -0.32.

Turning to `Cn1nc(C(C)(C)C)c2c1NC(=O)C[C@@H]2c1ccccc1Cn1cccn1`, the “% Inhibition” value was found to be 0% and the Z score is -0.03.

As for `CCN(Cc1ccc2c(c1)CCO2)[C@H]1CCNC1=O`, the “% Inhibition” value was 5% and the Z score was -0.89.

For the compound `CC(C)(Cc1cccc(Cl)c1)C(=O)NCCS(C)(=O)=O`, the “% Inhibition” value is -2% and the Z score came out at 0.24.

Turning to `Cc1nc(N2CCC(O)(Cn3ccnn3)CC2)c(Cl)cc1C#N`, the “% Inhibition” value is given as -2% and the Z score is given as 0.22.

`O=C(NCc1ccncc1)[C@]1(F)CCCN(S(=O)(=O)c2ccc3c(c2)CCC3)C1`: the “% Inhibition” value is -20% and the Z score stood at 1.76.

With `Cn1cc(C2C[S+]([O-])CCN2Cc2csc3ccccc23)cn1` (stereo unspecified), the “% Inhibition” value was -1% and the Z score was 0.27.

For the compound `O=C([C@H]1CCCO1)N1CCN(c2ccc3cn[nH]c3c2)C(=O)C1`, the “% Inhibition” value is given as -4% and the Z score is reported as 0.7.

For `CCc1noc(CN(CC)Cc2noc(C3CCCC3)n2)n1`, the “% Inhibition” value is -17% and the Z score was 1.6.

As for `Cc1cnc2c(c1)N(C(=O)c1cccc(N3CCCC3=O)c1)CCO2`, the “% Inhibition” value was found to be 0% and the Z score was -0.01.

With `CCN(CC)C(=O)CC[C@@H]1CNC(=O)[C@@H]2C[C@H](NC(=O)c3ccco3)CN12`, the “% Inhibition” value stood at 14% and the Z score is listed as -1.64.

On to `CCc1nc(COc2cccnc2C)cs1`, for which the “% Inhibition” value is reported as -9% and the Z score was 1.23.

For `CC(=O)c1cccc(S(=O)(=O)Oc2ccc3c(c2)ncn3C)c1`, the “% Inhibition” value is -21% and the Z score was determined as 4.06.

As for `CCC(CC)NC(=O)c1nnc2n1CCCC[C@H]2C1CCOCC1`, the “% Inhibition” value worked out at 18% and the Z score is -2.23.

For the compound `CC(NC(=O)OC(C)(C)C)C1CN(C(=O)C2=NN(c3ccccc3)C(C(N)=O)C2)CCO1` (stereo unspecified), the “% Inhibition” value came out at 3% and the Z score was -0.39.

Take `CCOc1ccc(S(=O)(=O)Nc2ccc(C(=O)N(CC)CC(=O)NCc3cccs3)cc2)cc1`: the “% Inhibition” value is reported as -7% and the Z score is listed as 1.46.

`Cc1ccc(Oc2ccc(CN(C)C)cc2)nn1`: the “% Inhibition” value is -10% and the Z score worked out at 1.9.

As to `CN1CCN(S(=O)(=O)c2ccccc2CNCc2cnc(C3CC3)o2)CC1`, the “% Inhibition” value was -2% and the Z score came to 0.39.

`CC[C@H](NS(=O)(=O)c1ccco1)c1c(C)noc1C`: the “% Inhibition” value was -8% and the Z score came to 0.99.

With `O=C(CNC(=O)C1CCN(CC(=O)NC2CCCc3ccccc32)C1)NC1CCCc2ccccc21` (stereo unspecified), the “% Inhibition” value is recorded as 5% and the Z score was -0.79.

For `COc1nc(C)c(C(=O)NC[C@H]2CCN(CC(C)C)C2)s1`, the “% Inhibition” value is -9% and the Z score is 1.45.

In the case of `Cn1c(C(=O)NC[C@H]2CCCN3CCCC[C@@H]23)cc2ccc(Cl)cc21`, the “% Inhibition” value is -14% and the Z score is 1.8.

On to `CCC1(CNC(=O)CC[C@H](C)N2CCN(C)CC2)CCC1`, for which the “% Inhibition” value is -6% and the Z score turned out to be 1.14.

As for `COc1cccc(-c2cccc(CN3CCOC[C@@H](O)C3)c2)c1`, the “% Inhibition” value is -3% and the Z score is 0.48.

In the case of `COc1cccc(S(=O)(=O)N2CCCC[C@H]2c2nnc(-c3ccncc3)[nH]2)c1`, the “% Inhibition” value is listed as -17% and the Z score is 3.24.

For `COCCNC(=O)c1ccc2nc(C(C)C)oc2c1`, the “% Inhibition” value is listed as -2% and the Z score came out at 0.29.

As to `Cc1cc(C(=O)N2CC(CN3C(=O)COC3=O)C2)nn1C`, the “% Inhibition” value is listed as -4% and the Z score is given as 0.73.

Regarding `Clc1cc(CNC2CC2)ccc1OCc1ccccc1`, the “% Inhibition” value is on record as -4% and the Z score came out at 0.51.

As to `N#Cc1ccncc1N1CCC=C(F)C1`, the “% Inhibition” value is -7% and the Z score is listed as 0.88.

Consider `Cc1nc(C)c(CN[C@H]2CCN(C3CCCCC3)C2)o1`, for which the “% Inhibition” value came out at 7% and the Z score is given as -1.35.

`CCOc1ccccc1CN1C[C@@H](n2cnnn2)C[C@H]1C(=O)NCc1ccc(C)cc1`: the “% Inhibition” value is given as -9% and the Z score is reported as 1.23.

Regarding `COC(=O)[C@@H]1CCN(Cc2nccn2C(C)C)c2ccccc21`, the “% Inhibition” value is given as -11% and the Z score was 0.96.

Consider `Cc1cc(CN2CCN(CCO)CC2)c(C)c(CN2CCC[C@H](C)C2)c1`, for which the “% Inhibition” value was found to be 4% and the Z score is listed as -0.56.

With `CCCc1nc(NCc2cc(CC(C)C)no2)no1`, the “% Inhibition” value is -4% and the Z score was found to be 0.47.

`CCCOCC(=O)N1C[C@H](c2ccc(C)o2)[C@@H](N(C)C)C1`: the “% Inhibition” value is recorded as -17% and the Z score is listed as 1.73.

As to `CN(Cc1cc(C[C@H]2CNCC[C@H]2CC(=O)N2CCc3ccccc3C2)no1)c1ccccc1`, the “% Inhibition” value is given as 23% and the Z score is -2.64.

As to `Cc1ccc([C@H]2CN(C3CCOCC3)C[C@@H]2NS(=O)(=O)C2CC2)o1`, the “% Inhibition” value is given as 9% and the Z score is listed as -1.22.

On to `Nc1cc(Cl)c(S(=O)(=O)Nc2ccccc2)cc1S(=O)(=O)Nc1ccccc1`, for which the “% Inhibition” value is listed as -6% and the Z score turned out to be 0.82.

Turning to `Cc1cccc(Cl)c1S(=O)(=O)N1CCCc2occc2C1`, the “% Inhibition” value is reported as -12% and the Z score is reported as 1.54.

For the compound `O=C(Nc1cc(-c2nc3ccccc3s2)c(Cl)cc1Cl)c1cccnc1`, the “% Inhibition” value is 1% and the Z score is -0.12.

As to `Nc1cc(N2CCC(Oc3ccc4c(c3)CCC4)(C(=O)O)CC2)nc(N)n1`, the “% Inhibition” value worked out at 3% and the Z score is -0.33.

Regarding `CN1CC[C@@]2(CCCN(C(=O)c3cccc(-c4ccc(C(N)=O)o4)c3)C2)C1`, the “% Inhibition” value is listed as -10% and the Z score is listed as 1.5.

Take `CC(C)Cc1nc(-c2ccc(-n3ccnc3)cc2)n(CCCO)n1`: the “% Inhibition” value stood at 3% and the Z score is on record as -0.61.

With `CCc1nnc([C@@H]2CCCN2C(=O)NCc2ccc(F)cc2)[nH]1`, the “% Inhibition” value is reported as -5% and the Z score was 0.68.

Take `CC1CCC(C)N(C(=O)c2csc(S(=O)(=O)N3CCc4ccccc4C3)c2)C1` (stereo unspecified): the “% Inhibition” value was -5% and the Z score came out at 0.91.

`CCOC(CN1CCC(C#N)CC1)OCC`: the “% Inhibition” value is -9% and the Z score was 1.09.

These data come from ChEMBL document CHEMBL4888484, “Replenishing the malaria drug discovery pipeline: Screening and hit evaluation of the MMV Hit Generation Library 1 (HGL1) against asexual blood stage Plasmodium falciparum ,using a nano luciferase reporter read-out” (2022).
